# Data reported in PubChem BioAssay AID1347417 (National Center for Advancing Translational Sciences (NCATS), 2020).
# The whole screen tested about 120,000 compounds, of which about 5,300 (4.4%) were called active. Inconclusive means that the source gave no clear call. Such entries were picked first, then a sample of the others. Calls follow the shape of the dose curve; as a rule, active = well fitted inhibition curve with a large enough effect; inconclusive = small, poorly fitted or top-dose-only effect; inactive = no such curve, though single readings can be large or run the other way. Potencies of inconclusive entries are doubtful fits and often do not repeat.
# Assay: qHTS Primary assay for Inhibitors of Plasmodium falciparum Dd2 growth in vitro; also: nearly all actives have a fitted effect of over 65% in size;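 as to activity, negative = inhibition: plate controls were DMSO vehicle for no effect and reference drug for full effect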
# Settings: P. falciparum Dd2 growth, SYBR Green, 72 h; activity, negative = inhibition: at 28.9 µM (top of the series) unless noted; series mostly up to 28.9 µM
# How it was run: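 Infected erythrocytes (Dd2, 0.3% parasitemia, 2.5% hematocrit final) are added to compound in RPMI-1640/Albumax II medium, grown 72 h at 37C in low oxygen, then lysed with saponin/Triton-X containing SYBR Green and read by fluorescence.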
# Potency is read from the fitted curve at half-maximal effect; tags tell the direction and shape of the fitted curve.
Compound,Potency,"activity, negative = inhibition",outcome
COCC1CN(C2CCC2)CC12CCN(C(=O)Cc1ccccc1)CC2 (stereo not given),"inconclusive: 7.08 µM [inhibitor, partial curve, poor fit]",–,–
Cc1ccc(NC(=O)Cn2cc(S(=O)(=O)N3CCC(C)CC3)c3ccccc3c2=O)c(Br)c1,"inconclusive: 7.94 µM [inhibitor, partial curve]",–,–
Cc1cccc(CNC(=O)c2ccc(NC(=O)N3CCSc4ccccc43)cc2)c1,"inconclusive: 17.8 µM [inhibitor, single point]",–,–
COc1cccc(N2C(=O)NC(=NC3CCCCC3)C23CCCN(Cc2ccccc2)C3)c1 (stereo not given),"inconclusive: 11.2 µM [inhibitor, single point]",–,–
CCNC(=O)NC[C@H]1Cn2c(-c3cccc(Cl)c3)cnc2CO1,"inconclusive: 31.6 µM [inhibitor, single point]",–,–
Cc1ccccc1-n1c(/C=C/c2ccccc2F)nc2ccccc2c1=O,active: 10 µM,–,–
CC(C)c1nccn1CCCNC(=O)c1ccc(-c2cccc(F)c2)nc1,–,inactive: -21.9%,–
CC(C)CNC(=O)c1cc(C2CC2)nc2c1c(C1CCCN1)nn2-c1ccccc1 (stereo not given),active: 4.47 µM,–,–
Cc1c(Cl)cccc1NC(=O)Cn1cc2c(n1)CCCC2,–,inactive: 1.95%,–
CCOC(=O)c1cc(-c2ccccc2)n(-c2cccc(C(=O)Nc3cccc(C(C)=O)c3)c2)c1C,"inconclusive: 12.6 µM [inhibitor, single point]",–,–
COc1ccc(Cn2c3c(c(=O)n2Cc2ccccc2)CCN(CC2CCOC2)C3)cc1 (stereo not given),"inconclusive: 10 µM [inhibitor, partial curve, poor fit]",–,–
O=C(CCCc1ccccc1)NCCC1CCN(C(=O)Nc2cc(F)cc(F)c2)CC1,"inconclusive: 17.8 µM [inhibitor, partial curve, poor fit]",–,–
Cc1ncsc1CN1CC[C@H]2C(=O)NCCCCCCN(Cc3ccncc3)[C@@H]2C1,"inconclusive: 17.8 µM [inhibitor, single point]",–,–
CC1(C)CC2CC(C)(CN2C(=O)CCC2(Cc3ccco3)CCC(=O)N2)C1 (stereo not given),–,inactive: 2.51%,–
COC(=O)c1ccc2nc(C[C@@H]3C[C@@H](C(C)C)[C@H](CNCc4ccc(OC)cc4O)C=C3C)[nH]c2c1,–,inactive: -6.61%,–
O=S(=O)(c1cccc(C(F)(F)F)c1)N1CCC(n2cnnc2C2CC2)CC1,–,inactive: 12.1%,–
CCN1CCN(c2c(S(=O)(=O)c3ccc(C)c(C)c3)cnc3ccc(F)cc23)CC1,"inconclusive: 10 µM [inhibitor, single point]",–,–
Clc1ccccc1C1(c2ccnc(CC3CC3)n2)CCNCC1,active: 5.01 µM,–,–
O=C(Nc1ccc(-c2nnc3n2CCCC3)cc1)c1ccco1,"inconclusive: 8.91 µM [inhibitor, partial curve, poor fit]",–,–
COc1ccc2nc3n(c2c1)[C@@H](CNC(=O)c1ccc(C#N)cc1)COC3,–,inactive: -3.95% [at 44.1 µM],–
COc1ccc2nc([C@H]3CCN(Cc4cccc(OC(F)(F)F)c4)C3)[nH]c2c1,"inconclusive: 1.26 µM [inhibitor, partial curve]",–,–
O=c1c2cnn(-c3ccc(Cl)cc3)c2ncn1Cc1cccc(C(F)(F)F)c1,–,inconclusive: -46.9% [inhibitor] [at 0.594 µM],–

Compound,Potency,"activity, negative = inhibition",outcome
COc1ccc(NC(=O)CSc2cc(-c3ccccc3)nc(C)n2)cc1,–,inactive: 20%,–
CC(=O)c1cccc(NS(=O)(=O)c2ccc3c(c2)NC(=O)CC(=O)N3)c1,–,inconclusive: -42.4% [inhibitor] [at 0.594 µM],–
Cc1ccc(Cl)cc1NC(=O)Cn1c(=O)n(Cc2ccc(C(=O)NCc3ccc4c(c3)OCO4)cc2)c(=O)c2ccccc21,–,inactive: -17.4%,–
CN(C)c1nc2c(c(=O)[nH]1)CCN(Cc1ccc(C(F)(F)F)cc1)CC2,"inconclusive: 2.51 µM [inhibitor, single point]",–,–
O=C([C@@H]1C[C@H](F)CN1C(=O)Cc1ccccc1F)N1CCCCC1,–,inactive: -11.3%,–
O=C(Cc1cccc(F)c1)NC1CCCN(c2cc(-c3ccc(F)cc3)[nH]n2)C1 (stereo not given),–,–,inactive
CC(=O)N1c2c(cc(Br)cc2S(=O)(=O)N2CCN(c3cccc(Cl)c3)CC2)CC1C (stereo not given),"inconclusive: 5.01 µM [inhibitor, partial curve, poor fit]",–,–
CCOc1ccc(CN(C)C2CCOc3ccccc32)cc1 (stereo not given),–,inactive: -9.75% [at 44.1 µM],–
N#Cc1ccc(CN2CCC(c3nc4ncccc4[nH]3)C2)cc1 (stereo not given),–,inconclusive: -55.4% [inhibitor] [at 44.1 µM],–
O=C(c1ccc2c(c1)OCO2)N1CCCN(C(=O)C2CC2)c2ccccc21,"inconclusive: 20 µM [inhibitor, single point]",–,–
CC1=C[C@@H](CN2CCN(CCO)CC2)[C@H](C(C)C)C[C@H]1Cc1nnc(-c2ccc(N(C)C)cc2)o1,"inconclusive: 0.891 µM [inhibitor, partial curve, poor fit]",–,–
CN(C)C(=O)c1n[nH]c2c1CN(C(=O)c1ccc(F)cc1)CC2,"inconclusive: 2.51 µM [inhibitor, single point]",–,–
CCc1nc2c(c(-c3ccc(O)cc3)n1)CCN(Cc1ccc(F)cc1)CC2,"inconclusive: 3.16 µM [inhibitor, single point]",–,–
CN1CCN(c2nc3c(S(=O)(=O)c4ccccc4)nnn3c3ccsc23)CC1,–,inactive: 11.2%,–
CCn1nc(C)c(CNC(=O)[C@@H]2C[C@@H](O)CN2C2CCN(C(=O)c3cccc(OC)c3)CC2)c1C,"inconclusive: 5.01 µM [inhibitor, partial curve, poor fit]",–,–
COc1ccccc1NC(=O)Cn1cccc1-c1nc(-c2ccc(F)cc2)no1,"inconclusive: 1 µM [inhibitor, partial curve]",–,–
Cc1ccc(-n2c(SCC(=O)Nc3cccc(C)c3)nc3c(oc4ccccc43)c2=O)cc1,"inconclusive: 17.8 µM [inhibitor, single point]",–,–
Clc1ccc(CNc2nc(-c3ccccc3)no2)cc1,active: 11.2 µM,–,–
COC[C@@H]1CN(C(=O)c2ccc(C)cn2)C[C@H]1c1nc(C2CC2)no1,"inconclusive: 11.2 µM [inhibitor, partial curve, poor fit]",–,–
CCC(=O)Nc1ccc2nc(SCCOc3ccc(C)cc3)sc2c1,"inconclusive: 11.2 µM [inhibitor, single point]",–,–
CCS(=O)(=O)c1ncc(N(Cc2ccc(F)cc2)Cc2ccco2)c(C(=O)Nc2cc(C)ccc2C)n1,"inconclusive: 5.62 µM [inhibitor, partial curve]",–,–
O=C(c1ccccc1)N1CCC2(CC1)COc1ccccc1CN2,"inconclusive: 2.24 µM [inhibitor, partial curve, poor fit]",–,–

Compound,Potency,"activity, negative = inhibition",outcome
CCOC(=O)C1CCN(C(=O)CN2c3ccc(CC)cc3-c3ccccc3S2(=O)=O)CC1,–,inactive: -0.841%,–
CC1=C[C@@H](CC#N)[C@H](C(C)C)C[C@H]1CC(=O)NCc1ccc(C(F)(F)F)cc1,"inconclusive: 22.4 µM [inhibitor, single point]",–,–
CC(C)(CC(=O)O)CC(=O)N1Cc2[nH]cnc2C[C@H]1c1nc(-c2ccc3ccccc3c2)no1,–,inactive: -27.3%,–
CCCN(CCC)C(=O)Cn1c(=O)n(-c2ccc(OC)cc2)c(=O)c2ccc(C(=O)NCc3ccc(C)cc3)cc21,"inconclusive: 17.8 µM [inhibitor, single point]",–,–
CN1[C@@H](CCC(=O)NCc2cccs2)CNC(=O)[C@@H]2[C@H]1CCN2Cc1ccccc1,"inconclusive: 31.6 µM [inhibitor, single point]",–,–
CN1C(=O)[C@@H]2C[C@@H](O)CN2C2(CN(Cc3cnc4ccccc4c3)C2)C1=O,–,inactive: -5.31% [at 44.1 µM],–
CCc1noc(-c2cccn3c(CNC(=O)Cc4ccccc4OC)nnc23)n1,"inconclusive: 0.891 µM [inhibitor, partial curve, poor fit]",–,–
O=[N+]([O-])c1ccc(C(c2sc3nc(-c4ccco4)nn3c2O)N2CCN(c3cccc(Cl)c3)CC2)cc1 (stereo not given),"inconclusive: 10 µM [inhibitor, single point]",–,–
CCN1CCN(CCNC(=O)Cc2cccn2-c2ccc(C)cc2)CC1,"inconclusive: 17.8 µM [inhibitor, single point]",–,–
COc1ccc(-c2nnc(C[C@@H]3C[C@@H](C(C)C)[C@H](CNCc4cccnc4)C=C3C)o2)cc1,"inconclusive: 0.891 µM [inhibitor, full curve, poor fit]",–,–
Cc1ccc(C)c(Cn2nc(-c3cc(C)ccc3C)ccc2=O)c1,–,inactive: -6.81%,–
CCOc1ccc2c(n1)CCN(C(=O)CCc1ccccc1)C2,"inconclusive: 11.2 µM [inhibitor, partial curve, poor fit]",–,–
COc1ccc(C(CC(=O)N2CCC(OC)CC2)c2ccccc2)cc1 (stereo not given),–,inactive: -7.75%,–
O=C1Nc2ccccc2CN(CC2CC2)C12CCNC2 (stereo not given),"inconclusive: 11.2 µM [inhibitor, partial curve, poor fit]",–,–
CC(=O)N1Cc2ccccc2NC(=O)C12CCNC2 (stereo not given),–,inactive: 17.9% [at 44.1 µM],–
O=C(Nc1ccc([C@@H](O)[C@H]2COCC(=O)N2Cc2ccc(C(F)(F)F)cc2)cc1)C1CCCC1,"inconclusive: 17.8 µM [inhibitor, single point]",–,–
O=C1NC2(CCN(CC3CC3)CC2)Oc2ccccc21,"inconclusive: 22.4 µM [inhibitor, single point]",–,–
Cc1cccc(NC(=O)N2C[C@@H](Oc3ccccc3)C[C@@H]2C(=O)N2CCOCC2)c1,"inconclusive: 0.794 µM [inhibitor, partial curve, poor fit]",–,–
O=C(NCCc1ccccc1)c1ccc(CSc2nc3ccncc3n2Cc2ccc(F)cc2)cc1,active: 7.08 µM,–,–
Cc1noc(C)c1CC(=O)N1CCC(OCCOc2ccc(F)cc2)CC1,–,inactive: 37.3%,–
COc1cccc(CNCCSc2nnnn2C)c1OCc1ccccc1F,"inconclusive: 6.31 µM [inhibitor, partial curve, poor fit]",–,–
